# Test results from the supplement of paper PMC9446081.
# Screen size: about 39,000 compounds; about 220 (0.56%) showed activity. The list shows a part of the results.
# System: Escherichia coli K-12 BW25113
# Test: relative growth (OD600 normalised to plate interquartile mean) (fraction); higher = less growth inhibition, active = 0.2 or less
# Conditions: 50 µM; LB; incubation time: overnight (16-24 h)
# 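Also: static incubation at 37 °C against the wild-type strain, values averaged over two biological replicates.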
row,SMILES,relative growth
1,c1ccc([C@@H]2CCC[C@H](c3ccccc3)S2)cc1,inactive: 1.02
2,COCC(=O)N(C)C[C@@H]1Oc2cc(C#CCN(C)C)ccc2S(=O)(=O)N([C@H](C)CO)C[C@H]1C,inactive: 1
3,COc1ccc(S(=O)(=O)Nc2ccc3c(c2)C(=O)N([C@@H](C)CO)C[C@H](C)[C@H](CN(C)Cc2ccc(C(F)(F)F)cc2)OCCCC[C@@H](C)O3)cc1,inactive: 1.05
4,CC(=O)N(C[C@@H](O)CO)c1c(I)c(C(=O)NC[C@@H](O)CO)c(I)c(C(=O)NC[C@@H](O)CO)c1I,inactive: 0.978
5,C[C@@H]1CN([C@H](C)CO)S(=O)(=O)c2ccc(C#CC3(O)CCCC3)cc2O[C@@H]1CN(C)C(=O)Nc1ccc(F)cc1,inactive: 0.975
6,C[C@@H]1CCCCO[C@@H](CN(C)CC2CCCCC2)[C@H](C)CN([C@H](C)CO)C(=O)c2cc(NC(=O)Cc3ccccc3)ccc2O1,inactive: 0.96
7,CC(C)(C)OC(=O)N1CC[C@H](c2cn(-c3ccc(C(F)(F)F)cc3)nn2)[C@@H]1C(=O)Nc1cccc2cccnc12,inactive: 1.03
8,C[C@@H]1CCCCO[C@H](CN(C)C(=O)Nc2ccc3c(c2)OCO3)[C@H](C)CN([C@@H](C)CO)C(=O)c2cc(NS(=O)(=O)c3ccccc3)ccc2O1,inactive: 1.03
9,CC12CCCC(O)(C1)C1CC(C)(C)C1CC2 (stereo not drawn) [beta-CARYOPHYLLENE ALCOHOL],inactive: 1.1
10,CC(C)C#Cc1cnc2c(c1)C(=O)N([C@@H](C)CO)C[C@@H](C)[C@H](CN(C)C(=O)c1ccc3c(c1)OCO3)O2,inactive: 1.01
11,C[C@H]1CN([C@@H](C)CO)C(=O)c2cc(C#CCN(C)C)cnc2O[C@@H]1CN(C)C(=O)Nc1cccc(F)c1,inactive: 0.993
12,C[C@H](O)C#Cc1ccc2c(c1)O[C@H](CN(C)C)[C@@H](C)CN([C@@H](C)CO)S2(=O)=O,inactive: 1.04
13,C[C@@H]1CN([C@H](C)CO)C(=O)Cc2cc(NC(=O)CCCN(C)C)ccc2O[C@@H]1CN(C)S(=O)(=O)c1ccccc1,inactive: 1.01
14,C[C@H]1CCCCO[C@H](CN(C)C(=O)Nc2ccccc2)[C@@H](C)CN([C@@H](C)CO)C(=O)c2cc(NS(=O)(=O)c3ccc(Cl)cc3)ccc2O1,inactive: 0.998
15,CN1c2ccccc2[C@@H](NCCCCCCC(=O)Nc2ccccc2N)c2ccc(Cl)cc2S1(=O)=O,inactive: 1.01
16,COc1ccc(COC[C@@]23Oc4ccccc4[C@@H](NC(=O)N2C(=O)c2ccccc2)[C@H]3CO[Si](C)(C)C(C)(C)C)cc1,inactive: 1.04
